The inconclusive results got no clear call from the source; some entries with a clear call stand among them for comparison. For some assays here: Potencies of inconclusive entries are doubtful fits and often do not repeat. The source made the active and inactive calls. Calls come from the whole dose curve; as a rule, active = well fitted curve in the direction sought with a large enough effect; inconclusive = small, poorly fitted or top-dose-only effect, or another doubt; inactive = no such curve, though single readings can be large; an effect the other way counts as inactive or inconclusive.
Tests used:
[1] = OV-KATE Cancer Cell Toxicity qHTS against the NCATS CANVASS Library (AID 1347345); conditions: OV-KATE cells viability, CellTiter-Glo luminescence, 72 h; series mostly up to 38.3 µM; note: potency is the fitted concentration of half-maximal effect
Procedure, shortened: (§1)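 1000 cells/well seeded and rested 4 h at 37 °C before pin transfer of compounds in an 11-pnt series. Exposure 72 h at 37 °C/5% CO2; viability by CellTiter-Glo luminescence after 15 min at room temperature.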

[2] = UWB1.289 Cancer Cell Toxicity qHTS against the NCATS CANVASS Library (AID 1347347); conditions: UWB1.289 viability, CellTiter-Glo luminescence, 72 h; series mostly up to 38.3 µM; note: potency is the fitted concentration of half-maximal effect; nearly all actives have a fitted effect of over 60% in size
Procedure, shortened: as §1

[3] = Panc-1005 Cancer Cell Toxicity qHTS against the NCATS CANVASS Library (AID 1347349); conditions: Panc-1005 viability, CellTiter-Glo luminescence, 72 h; series mostly up to 38.3 µM; note: potency is the fitted concentration of half-maximal effect; nearly all actives have a fitted effect of over 60% in size
Procedure, shortened: as §1

[4] = SW1088 Cancer Cell Toxicity qHTS against the NCATS CANVASS Library (AID 1347350); conditions: SW1088 viability, CellTiter-Glo luminescence, 72 h; series mostly up to 38.3 µM; note: potency is the fitted concentration of half-maximal effect; nearly all actives have a fitted effect of over 75% in size
Procedure, shortened: as §1

[5] = U-118MG Cancer Cell Toxicity qHTS against the NCATS CANVASS Library (AID 1347351); conditions: U-118MG viability, CellTiter-Glo luminescence, 72 h; series mostly up to 38.3 µM; note: potency is the fitted concentration of half-maximal effect
Procedure, shortened: as §1

[6] = UWB1.289-WTBRCA1 Cancer Cell Toxicity qHTS against the NCATS CANVASS Library (AID 1347354); conditions: UWB1.289-WTBRCA1 viability, CellTiter-Glo luminescence, 72 h; series mostly up to 38.3 µM; note: potency is the fitted concentration of half-maximal effect
Procedure, shortened: (§2)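 Luminescent ATP read-out (CellTiter-Glo, 15min at room temperature) measures survival after cells face an 11-point compound series for 72 hours at 37 degrees C/5% CO2.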

[7] = KB-8-5-11 Cancer Cell Toxicity qHTS against the NCATS CANVASS Library (AID 1347364); conditions: KB-8-5-11 MDR cells viability, CellTiter-Glo, 72 h; series mostly up to 46.1 µM; note: potency is the fitted concentration of half-maximal effect; nearly all actives have a fitted effect of over 75% in size
Procedure, shortened: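 Plate 500 KB-8-5-11 cells per well in DMEM + 10% FBS, add compounds by pin transfer, incubate 72 hr at 37C. Add CellTiter-Glo, wait 10 minutes at room temperature, read luminescence.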

[8] = J3T Cancer Cell Toxicity qHTS against the NCATS CANVASS Library (AID 1347371); conditions: J3T dog glioma viability, ATP luminescence, 72 h; series mostly up to 46.1 µM; note: potency is the fitted concentration of half-maximal effect
Procedure, shortened: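 Cells plated at 500 per well, compounds pin-transferred, plates incubated 72 hr at 37C, then CellTiterGlo added and luminescence read to measure ATP content.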

[9] = qHTS for Inflammasome Signaling Inhibitors: IL-1-beta AlphaLISA screen against the NCATS CANVASS Library (AID 1347379); conditions: THP-1 LPS/ATP, IL-1B AlphaLISA secretion, 16 h; series mostly up to 57.5 µM;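 note: human THP-1 cells primed with LPS then triggered with ATP; secreted IL-1B measured as AlphaLISA emission at 615 nm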; note: potency is the fitted concentration of half-maximal effect
Procedure, shortened: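 THP-1 cells pretreated 1 hr with compound (up to 57.5 uM final), then stimulated with LPS (250 ng/mL final) and ATP (1.25 mM final). Secreted IL-1B measured by AlphaLISA after 16 hr; glyburide as positive control.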

[10] = qHTS for Antimalaria activity screened against the NCATS CANVASS Library (AID 1347380); note: potency is the fitted concentration of half-maximal effect; nearly all actives have a fitted effect of over 40% in size; conditions: P. falciparum Dd2 growth, SYBR Green fluorescence, 72 h; series mostly up to 28.7 µM
Procedure, shortened: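 Dd2 strain, infected erythrocytes 2.5% Hct final / 0.3% parasitemia. 11-pt qHTS titration, 72 h, 37C, 5% O2, 5% CO2. Lysis buffer + SYBR Green, 18 h, fluorescence 485/535 nm.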

[11] = Secretion counterscreen for inhibitors of the SERCaMP assay screened against the NCATS CANVASS Library (AID 1347390); conditions: SH-SY5Y constitutive GLuc secretion, luminescence, 20 h; series mostly up to 76.6 µM;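 note: light from luciferase secreted into medium read as a measure of general secretion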; note: potency is the fitted concentration of half-maximal effect
Procedure, shortened: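 Counterscreen identifying compounds that disrupt secretion, using SH-SY5Y cells with a constitutively secreted Gaussia luciferase reporter. A 20 h compound exposure (top 77 uM) precedes luminescent detection with coelenterazine.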

[12] = qHTS for activators of Nrf2/ARE signaling pathway screened against the NCATS CANVASS Library (AID 1347391); conditions: ARE-bla HepG2, beta-lactamase reporter, 16 h; series mostly up to 46.1 µM; note: potency is the fitted concentration of half-maximal effect; nearly all actives have a fitted effect of over 60% in size
Procedure, shortened: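 Plate ARE-bla HepG2 cells at 2000/well and let them settle 5 h. Pin-transfer compounds in DMSO, incubate 16 h at 37C. Load CCF4 for 2 h at room temperature and read blue/green fluorescence.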

[13] = Vero-766 cells viability qHTS against the NCATS CANVASS Library: Counterscreen for Zika virus inhibition assay (AID 1347394); conditions: Vero 766 viability, CellTiter-Glo luminescence, 72 h; series mostly up to 46.1 µM; note: potency is the fitted concentration of half-maximal effect; nearly all actives have a fitted effect of over 60% in size
Procedure, shortened: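 This cytotoxicity counterscreen uses African green monkey Vero 766 cells in the absence of Zika virus. Compounds are incubated with cells for 72 h, and ATP-based luminescence reports viability.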

[14] = qHTS for inhibitors of Wild type Zika virus screened against the NCATS CANVASS Library (AID 1347396); conditions: Vero cells, Zika virus CPE, CellTiter-Glo, 72 h; series mostly up to 45.9 µM; note: potency is the fitted concentration of half-maximal effect
Procedure, shortened: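 Using ATP-based luminescence (CellTiter Glo), this screen scores rescue of Vero 766 cells from wild-type Zika killing at 72 h post-infection. Compounds are tested in a concentration series.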

[15] = HPAF-II Cancer Cell Toxicity qHTS against the NCATS CANVASS Library (AID 1347346); conditions: HPAF-II viability, CellTiter-Glo ATP luminescence, 72 h; series mostly up to 38.3 µM; note: potency is the fitted concentration of half-maximal effect; nearly all actives have a fitted effect of over 55% in size
Procedure, shortened: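 Luminescence from CellTiter-Glo, added after 72 h compound exposure and a 15 min room-temperature incubation, served as the viability readout. HPAF-II cells (1000/well) received an 11-point concentration series.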

[16] = HEK-293 Cancer Cell Toxicity qHTS against the NCATS CANVASS Library (AID 1347355); conditions: HEK-293 viability, CellTiter-Glo luminescence, 72 h; series mostly up to 46.1 µM; note: potency is the fitted concentration of half-maximal effect; nearly all actives have a fitted effect of over 65% in size
Procedure, shortened: as §2

[17] = qHTS for Hypoxia signaling pathway (HIF-1) agonists against the NCATS CANVASS Library (AID 1347375); conditions: HRE-bla ME-180 cells, HIF-1 beta-lactamase reporter, 17 h; series mostly up to 38.3 µM
Procedure, shortened: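 ME-180 HRE-bla reporter cells; 2,000/well, 0.5% dialyzed FBS; cpd added after 5 h, 17 h 37C/5% CO2; CCF4-AM 2 h RT; FRET 460/530 nm; CellTiter-Glo viability same wells, 30 min.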

[18] = Viability qHTS for inhibitors of the SERCaMP assay screened against the NCATS CANVASS Library (AID 1347400); conditions: SH-SY5Y SERCaMP cells viability, CellTiter-Glo, 48 h; series mostly up to 92.2 µM; note: potency is the fitted concentration of half-maximal effect; nearly all actives have a fitted effect of over 70% in size
Procedure, shortened: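 SH-SY5Y SERCaMP MJH297 cells, 1000/well; 4 h settle, 37C/5% CO2; pin-transferred cpds; 48 h; CellTiter-Glo lum. Pos ctrl bortezomib 0.0001 - 4.6 uM.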

[19] = Redox Reaction Profiling qHTS: Assay Interference Panel against the NCATS CANVASS Library (AID 1347401); conditions: resazurin-DTT redox cycling, fluorescence, 15 min; series mostly up to 57.1 µM
Procedure, shortened: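 Resazurin (5 uM) conversion to resorufin measured with 200 uM DTT in 50 mM HEPES pH 7.3, 50 mM NaCl. Compounds tested in 11-point qHTS series. Fluorescence (ex 525/em 598 nm) read before and after 15 min dark incubation.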
Tags give direction and shape of the fitted curve.

Row | Compound | Potency [1] | Potency [2] | Potency [3] | Potency [4] | Potency [5] | Potency [6] | Potency [7] | Potency [8] | Potency [9] | Potency [10] | Potency [11] | Potency [12] | Potency [13] | Potency [14] | Potency [15] | Potency [16] | Potency [17] | Potency [18] | Potency [19]
1 | COc1cc([C@@H]2c3cc4c(cc3C[C@@]3(O[C@@H]5O[C@H](CO)[C@@H](O)[C@H](O)[C@H]5O)COC(=O)[C@H]23)OCO4)cc(OC)c1OC | inconclusive: 16.7 µM [cytotoxic, partial curve, poor fit] | inconclusive: 0.0375 µM [cytotoxic, full curve] | inconclusive: 0.0473 µM [cytotoxic, full curve] | inconclusive: 23.7 µM [cytotoxic, single point] | inconclusive: 0.0375 µM [cytotoxic, full curve] | inconclusive: 0.188 µM [cytotoxic, full curve] | active: 0.0526 µM | inconclusive: 0.0118 µM [cytotoxic, full curve] | inactive | inconclusive: 10.6 µM [cytotoxic, partial curve, poor fit] | inactive | inconclusive: 0.741 µM [activator, full curve, poor fit] | inconclusive: 0.186 µM [cytotoxic, full curve] | inconclusive: 8.27 µM [inhibitor, partial curve, poor fit] | – | – | – | – | –
2 | C/C(=C\[C@H](C)C(=O)C[C@H](O)CC1CC(=O)NC(=O)C1)[C@@H]1OC(=O)CCCC/C=C/C[C@@H](O)[C@@H]1C | inconclusive: 13.3 µM [cytotoxic, partial curve] | inconclusive: 9.41 µM [cytotoxic, partial curve] | inconclusive: 10.6 µM [cytotoxic, partial curve] | – | inconclusive: 11.9 µM [cytotoxic, partial curve] | inconclusive: 18.8 µM [cytotoxic, single point] | – | inconclusive: 13.2 µM [cytotoxic, partial curve] | inconclusive: 38.5 µM [inhibitor, single point] | active: 4.72 µM | active: 12.2 µM | inconclusive: 18.6 µM [activator, single point] | – | – | inconclusive: 3.35 µM [cytotoxic, full curve] | active: 7.43 µM | inactive | inconclusive: 9.57 µM [cytotoxic, full curve] | inactive

From PubChem BioAssay (NCATS)
